Assay results taken from PubChem BioAssay AID686979 (National Center for Advancing Translational Sciences (NCATS), 2013).
The whole screen tested about 420,000 compounds, of which about 50,000 (12%) were called active. Inconclusive means that the source gave no clear call. Such entries were picked first, then a sample of the others. Calls come from the whole dose curve; as a rule, active = well fitted inhibition curve with a large enough effect; inconclusive = small, poorly fitted or top-dose-only effect; inactive = flat fitted curve, though single readings scatter. Potencies of inconclusive entries are left out as doubtful fits.
% is set by controls: 0 for no effect and ±100 for the full control effect; potency is the fitted concentration of half-maximal effect; tags give direction and shape of the fitted curve.

Experiment: qHTS for Inhibitors of human tyrosyl-DNA phosphodiesterase 1 (TDP1): qHTS in cells in presence of CPT; note: nearly all actives have a fitted effect of over 55% in size
Conditions: chicken DT40 Tdp1-/-;hTDP1 cells + 20 nM CPT, ATP luminescence, 48 h; activity change, negative = growth inhibition: at 46.2 µM (top of the series)
Summary of the method: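 Chicken DT40 Tdp1-/- cells stably complemented with human TDP1 were seeded at 400 cells/well in medium containing 20 nM camptothecin, exposed to pin-transferred compounds, and grown at 37 °C for at least 48 hr. Viability was read as ATP luminescence.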
For CCOC(=O)C1CCCN(c2c(NCCN(C)Cc3ccccc3)c(=O)c2=O)C1 (configuration not stated), the activity change, negative = growth inhibition was inconclusive: -4.75% [inhibitor].
For Cc1ccc(C(C)NC(=O)c2cc(C)oc2C)cc1 (configuration not stated), the “activity change, negative = growth inhibition” value was inactive: -28.4%.
With CCCCCCC=C1CCC(CN2CCCC2)C1=O (configuration not stated) the Potency was active: 2.91 µM.
In the case of CCOc1ccc(CCNC(=O)c2cn(CC)c3ccc(S(=O)(=O)N4CCCCCC4)cc3c2=O)cc1OCC, the Potency is reported as inconclusive [inhibitor, single point].
With CC(=O)N1CCCc2cc(S(=O)(=O)N(C)CC(=O)Nc3cccc(C)c3C)ccc21 the Potency was inconclusive [inhibitor, single point].
For COc1ccc(-n2nnc3c(=O)n(CC(=O)N4CCCc5ccccc54)cnc32)cc1, the Potency was inconclusive [inhibitor, single point].
In the case of Cc1ccc2c(c1)nnn2C1CCN(S(=O)(=O)c2cccc(S(=O)(=O)N(C)C)c2)CC1, the Potency is reported as active: 18.4 µM.
For Cc1cccc2c1N(CCOc1ccccc1Cl)C(=O)C2=O, the Potency was active: 2.59 µM.
In the case of O=C(/C=C/c1ccco1)c1ccc(NC(=O)C23CC4CC(CC(C4)C2)C3)cc1, the Potency is reported as active: 20.6 µM.
For CCOC(=O)c1[nH]c(C)c(CN(CCc2ccccc2)S(C)(=O)=O)c1C, the Potency was inconclusive [inhibitor, single point].
For COc1ccccc1Cn1nc(C(=O)O)c2ccccc2c1=O, the “activity change, negative = growth inhibition” value was inactive: -1.13%.
In the case of O=C(NCCN1CCN(c2cccc(Cl)c2)CC1)C1COc2ccccc2C1 (configuration not stated), the Potency is reported as inconclusive [inhibitor, single point].
With COc1cccc(-c2cc(C(=O)N/N=C/c3ccco3)c3ccccc3n2)c1 the Potency was inconclusive [inhibitor, partial curve].
For Oc1cccc2ccc(/C=C/c3c(F)cccc3Cl)nc12, the Potency was inconclusive [inhibitor, single point].
In the case of CC1(C)CC(=O)C2(CC3=C(CC(C)(C)CC3=O)O2)C(=O)C1, the “activity change, negative = growth inhibition” value is reported as inactive: -5.29%.
For COc1cc(OC)cc(C(=O)Nc2cccc3ccccc23)c1, the Potency was inconclusive [inhibitor, single point].
For Cc1cc(=O)oc2cc(OC(C)C(=O)N3CCCc4ccccc43)ccc12 (configuration not stated), the Potency was inconclusive [inhibitor, single point].
For CCCS(=O)(=O)c1c(S(=O)(=O)CCC)c2ccccn2c1C(=O)OC, the Potency was active: 20.6 µM.
In the case of Cc1cccc(N2CCN(Cc3nc(-c4ccccc4Cl)oc3C)CC2)n1, the Potency is reported as inconclusive [inhibitor, full curve].
In the case of CN(C)S(=O)(=O)c1ccc(C(=O)NC2CC(=O)N(c3ccc4c(c3)OCCO4)C2)cc1 (configuration not stated), the “activity change, negative = growth inhibition” value is reported as inactive: 2.31%.
With CN1CCN(c2ncc3nc(-c4cc(F)cc(F)c4)c(=O)n(C4CC4)c3n2)CC1 the Potency was inconclusive [inhibitor, single point].
With COc1ccc(-c2nnc(SCC(=O)NCc3cccs3)n2CC(C)C)cc1 the Potency was inconclusive [inhibitor, single point].
With Cc1ccc(S(=O)(=O)N(CCc2ccccc2)CC(=O)Nc2cc(C)ccc2C)cc1 the Potency was inconclusive [inhibitor, single point].
For CC(C)(C)OC(=O)N1CCCC(C(=O)Nc2cccc(C(=O)NCc3ccccc3)c2)C1 (configuration not stated), the Potency was inconclusive [inhibitor, single point].
For COc1cc2c(cc1OC)C(SC)=NC(C)(C)C2, the Potency was inconclusive [inhibitor, single point].
For CCCCC(=Nc1ccc(N)cc1)C1=C(O)C(C(=O)OC)C(C)(C)CC1=O (configuration not stated), the Potency was inconclusive [inhibitor, partial curve, poor fit].
With Oc1ccc(Cl)cc1/C=C/c1ccc2cccc(O)c2n1 the Potency was inconclusive [inhibitor, single point].
In the case of Cc1ccc(Cl)cc1NC(=O)CC(O)(C(F)(F)F)C(F)(F)F, the Potency is reported as active: 18.4 µM.
For Cc1cnc(NC(=O)c2cccs2)s1, the “activity change, negative = growth inhibition” value was inactive: -2.38%.
For O=C(Nc1ccc(Cc2nc3ccccc3s2)cc1)c1ccncc1, the Potency was inconclusive [inhibitor, single point].
For COCCNS(=O)(=O)c1cc(C)c(C)cc1C, the Potency was inconclusive [inhibitor, single point].
With CCC1(C)Cc2c(sc3nc(NN)n(C)c(=O)c23)CO1 (configuration not stated) the Potency was inconclusive [inhibitor, single point].
In the case of CC(=O)c1ccc(OCCCC(=O)N2CCN(S(=O)(=O)c3cccs3)CC2)cc1, the Potency is reported as inconclusive [inhibitor, single point].
In the case of COc1cc(Cl)cc(/C=N\NC(=O)c2ccc3c(c2)OCO3)c1O, the Potency is reported as inconclusive [inhibitor, full curve, poor fit].
For COc1cc(C2C(C(=O)Nc3ccc(C)cc3C)=C(C)Nc3nc4ccccc4n32)cc(OC)c1OC (configuration not stated), the “activity change, negative = growth inhibition” value was inactive: -12.4%.
With Nc1cc(=O)nc(SCC(=O)N(C2CCCCC2)C2CCCCC2)n1-c1ccccc1 the activity change, negative = growth inhibition was inconclusive: -31.2% [inhibitor].
For COc1ccc(OC)c(NC(=O)CN2CCc3ccccc3C2)c1, the Potency was inconclusive [inhibitor, partial curve].
For Cc1ccccc1C(C(=O)NC1CCCC1)N(C(=O)Cc1cccs1)c1ccc2c(c1)OCCO2 (configuration not stated), the Potency was inconclusive [inhibitor, partial curve].
With O=S(=O)(NCc1nc(-c2ccccc2)no1)c1ccc(F)cc1 the “activity change, negative = growth inhibition” value was inactive: -13.7%.
In the case of O=C(NCc1ccccc1)c1nc[nH]c1C(=O)N1CCN(c2ccccc2)CC1, the “activity change, negative = growth inhibition” value is reported as inactive: -5.77%.
In the case of CC1CCC(C(C)C)C(OCC(O)CN2CCOCC2)C1 (configuration not stated), the “activity change, negative = growth inhibition” value is reported as inactive: -3.54%.
For CC(=O)c1cccc(NC(=S)Nc2ccn(Cc3cccc4ccccc34)n2)c1, the Potency was inconclusive [inhibitor, partial curve, poor fit].
For Cn1cc(C(=O)NCc2ccccc2)c(=O)c2cc(S(=O)(=O)N3CCOCC3)ccc21, the “activity change, negative = growth inhibition” value was inactive: -0.944%.
In the case of Cc1cccc(NC(=O)Cn2nnc(C(=O)Nc3ccccc3Br)c2N)c1C, the “activity change, negative = growth inhibition” value is reported as inactive: -14.6%.
In the case of O=c1[nH]c2c(s1)C(c1ccc(O)cc1)C1C3CCC(C3)C1S2 (configuration not stated), the “activity change, negative = growth inhibition” value is reported as inactive: -17.7%.
In the case of O=C(Nc1ccc2nc(-c3cccs3)[nH]c2c1)c1cccs1, the Potency is reported as inconclusive [inhibitor, partial curve].
For N#CSC(c1ccccc1)c1nc2ccccc2[nH]c1=O (configuration not stated), the Potency was active: 6.51 µM.
For CCC(=O)c1cc(F)c(N2CCN(S(=O)(=O)c3ccc(C)cc3)CC2)cc1C, the Potency was inconclusive [inhibitor, single point].
In the case of Cn1c(=O)c2c(nc3n2CCS3)n(C)c1=O, the “activity change, negative = growth inhibition” value is reported as inactive: -12.5%.
For COc1cccc(N2CCN(C(=O)C3CCN(S(=O)(=O)c4c(C)noc4C)CC3)CC2)c1, the “activity change, negative = growth inhibition” value was inactive: -16.8%.
For COc1cccc(-c2nc(CS(=O)(=O)CC(=O)Nc3c(C)cc(C)cc3C)c(C)o2)c1, the Potency was active: 18.4 µM.
With O=c1cc(CSc2nnc(COc3ccccc3Cl)o2)nc2sccn12 the “activity change, negative = growth inhibition” value was inactive: -20.8%.
With CCOc1ccccc1NC(=O)c1nc2nc(C)cc(C(F)F)n2n1 the Potency was inconclusive [inhibitor, single point].
With CCC(=O)N1CCCC(C(=O)NCc2ccc(C(C)C)cc2)CC1 (configuration not stated) the “activity change, negative = growth inhibition” value was inactive: 5.95%.
In the case of CCc1cccc2c(C(=O)COC(=O)/C=C/c3ccccc3OC)c[nH]c12, the “activity change, negative = growth inhibition” value is reported as inactive: 0.832%.
In the case of COc1ccc(-c2nn(C)c(=O)c3ccccc23)cc1CNC(=O)c1ccco1, the activity change, negative = growth inhibition is reported as inconclusive: -37.8% [inhibitor].
For COc1cccc(-c2nc(CS(=O)(=O)CC(=O)NCC(C)c3ccccc3)c(C)o2)c1 (configuration not stated), the Potency was inconclusive [inhibitor, single point].
For CCc1ccc(NC(=O)Nc2cccs2)cc1, the Potency was active: 20.6 µM.
In the case of COc1ccc(OC)c(Nc2nc(NCc3ccco3)c3ccccc3n2)c1, the Potency is reported as inconclusive [inhibitor, single point].
With CSc1ccc(CCNC(=O)CN2C(=O)c3cccnc3Oc3ccc(C)cc32)cc1 the Potency was inconclusive [inhibitor, single point].
For CCOC(=O)CCNC(=O)N1CCCC(C(=O)c2cccc(OC(C)C)c2)C1 (configuration not stated), the Potency was inconclusive [inhibitor, single point].
With NC1=NC2(CCCCC2)N(c2ccc(F)cc2F)C(N)=N1 the “activity change, negative = growth inhibition” value was inactive: -0.0169%.
In the case of COC(=O)COc1ccc(S(=O)(=O)N2CCCCCC2)cc1, the “activity change, negative = growth inhibition” value is reported as inactive: 7.06%.
For CCn1nc(CC(C)C)cc1C(=O)N1CCCC(Nc2ccc(F)cc2)C1 (configuration not stated), the Potency was inconclusive [inhibitor, single point].
With Fc1ccccc1Nc1nc2ccccc2n2nnnc12 the Potency was inconclusive [inhibitor, single point].
In the case of CCOc1cc(/C=C2/C(=N)N3C=CSC3=NC2=O)ccc1OCCCOc1ccccc1C, the Potency is reported as active: 10.3 µM.
With CCOc1cc(C(c2c(C)[nH][nH]c2=O)c2c(C)[nH][nH]c2=O)ccc1OCc1ccc([N+](=O)[O-])cc1 the Potency was inconclusive [inhibitor, single point].
For Cc1cc(S(=O)(=O)c2ccc(Cl)cc2)nc(S(=O)(=O)c2ccc(Cl)cc2)c1C#N, the Potency was active: 0.651 µM.
For COC(=O)c1c(F)c(F)c(N2CCOCC2)c(F)c1F, the Potency was inconclusive [inhibitor, single point].
In the case of C[C@@H](O)CNC(=O)c1[nH]cnc1C(=O)Nc1ccc(CNC(=O)OC(C)(C)C)cc1, the Potency is reported as inconclusive [inhibitor, single point].
In the case of O=C(Nc1cccc(S(=O)(=O)N2CCOCC2)c1)c1ccc(Cl)c([N+](=O)[O-])c1, the Potency is reported as inconclusive [inhibitor, single point].
In the case of COc1ccc2c(c1OC)C(=O)N(c1cccc(C(F)(F)F)c1)C2, the Potency is reported as inconclusive [inhibitor, single point].
